Assay results from patent US20260217767A1, “NOVEL A4B7 THIOETHER PEPTIDE DIMER ANTAGONISTS” (Protagonist Therapeutics, Inc., priority 2014, published 2026).
For some assays here: At least one peptide structure holds a part that was inferred or is arguable (an end, a ring closure or a residue). For some assays here: For at least one compound, name, drawing or mass did not settle the structure. *1 amine or outer side, *2 acyl side, *3 side chain or, on linkers, in order; H or OH if unused. Where a SMILES comes first, the peptide text is derived from it. Bridges are numbered along the chain shown (N, C = ends). Roman numbers before positions name the chains, in order. [ ]: non-standard residue; d: D form. Phe(3-Me) = Cc1cccc(C[C@H](N)C(=O)O)c1; Phe(4-Me) = Cc1ccc(C[C@H](N)C(=O)O)cc1; Diglycolyl = O=C(COCC(=O)[*:2])[*:1]; NMeR = CN[C@@H](CCCNC(=N)N)C(=O)O; Tic = O=C(O)[C@@H]1Cc2ccccc2CN1; β3hE = N[C@@H](CCC(=O)O)CC(=O)O; X1 = O=C(c1ccccc1C[*:2])[*:1]; Pen = CC(C)(S)[C@H](N)C(=O)O

Key:
[1] = tested on: CD4+/CD45RO+ memory T cells; assay: PBMC Memory T Cell Adhesion Assay; type: cell-based, human
Method: PBMC Memory T Cell Adhesion Assay
Fresh CD4+/CD45RO+ memory T cells were isolated from human peripheral blood mononuclear cell (PBMC) donors by Aragen Bioscience Inc. (Morgan Hill, CA). The assay plate was prepared using IgG Fc capture antibody (donkey anti human) immobilized at 500 ng/well in 50 mM sodium bicarbonate buffer, pH 9.5, ON, 4 C onto a Greiner Fluotrac plate (100 ul per well). The plate was rinsed two time with Blocking Buffer (25 mM Tris HCl, pH7.5, 150 mM NaCl, 1.5% BSA, 0.05% Tween), and blocked with Blocking Buffer for 2 hours at 37 C or 5 hours at RT using 200 ul per well. The Blocking Buffer was removed and either MAdCAM-1 or VCAM-1 at 400 ng/well in Blocking Buffer was added and the plate incubated overnight at 4 C (100 ul per well). The plate was washed two times with Blocking Buffer, and rinsed once with 200 ul Binding Media (DMEM phenol red free, 10 mM HEPES, 1×Na pyruvate, 1× Glutamine, and supplemented with 1 mM MnC12 prior to use). To prepare cells, approximately 25 million CD4+/CD45RO+ memory T cells were counted by trypan blue exclusion using a haemocytometer to determine viability and cell count. The cells were transferred to a 50 ml conical tube, and centrifuged at 1200 rpm for 10 minute. The media was aspirated and the cell pellet resuspended in 15 ml Binding Media. The cells were centrifuged again and resuspended in the appropriate amount of Binding Media to be used for assays (50 ul of cells per well at 2× the final density). To each well, and equal volume (50 ul) of test compound was added and the plate was incubated for 1.5 hours at 37 C, 5% CO2. Each well was rinsed 3× with 150 ul per well of Binding Media. […] The plate was incubated at 37 C, 5% CO2, for 45 minutes. The plate was protected from light by using black adhesive seals. Fluorescence intensity was measured using a Molecular Devices Gemini EM Fluorescent Plate Reader (Ex 485/Em530, Bottom Read, Reading Sensitivity=20). IC50 curves are generated using Graph Pad Prism and the curves analyzed using analyzed using a non-linear regression (four parameters) algorithm. […]

[2] = Simulated Intestinal Fluid (SIF) Stability Assay; type: in vitro ADME; settings: porcine pancreatin, 37° C.; dimers, Table 7
Method: Simulated Intestinal Fluid (SIF) Stability Assay
Studies were carried out in simulated intestinal fluid (SIF) to evaluate intestinal stability of the peptide molecules of the instant invention. To prepare the SIF reagent, blank FASSIF was prepared by dissolving 0.348 g NaOH, 3.954 g sodium phosphate monobasic monohydrate and 6.186 g NaCl in a final volume of 1 liter water (final pH=6.5). To this solution, 24 g porcine pancreatin (Sigma catalog P7545) was added and stirred for 30 minutes (final pancreatin concentration is 2.4%). The solution was filtered through a cheese cloth and a No. 1 Whatman filter, and 10 ml aliquots were stored at −70° C. To run the reaction, a 10 ml aliquot was thawed at 37° C., and 125 μl aliquots were removed and mixed with an equal volume of blank FASSIF. The peptide stock solution (10 mM in 100% DMSO) was diluted 75-fold in blank FASSIF. A 50 μl aliquot of the diluted peptide was combined with 125 μl pancreatin (2.4%) and 125 μl blank FASSIF to yield final concentrations of 1% pancreatin and 22 μM peptide. The reactions were incubated at 37° C., and at various time points 50 μl aliquots were removed and added to 200 μl of quench solution containing 50% acetonitrile, 50% methanol, 5% formic acid, and 1 μg/ml internal standard. The quenched samples were centrifuged at 10,000 rpm for 10 minutes, and the supernatants were analyzed by LCMS/MS. The percent remaining at each time point was calculated based on the peak area response ratio of test to compound to internal standard. Half-lives were calculated by fitting to a first-order exponential decay equation using GraphPad. A small sampling of the results of these studies is provided and discussed herein and in the accompanying figures.

α4β1 = molecular target: T1, α4β1 (Homo sapiens, UniProt P05556+P13612); assay: α4β1-VCAM Competition ELISA; type: binding; settings: thioether peptide dimers, Table 7; read-out: ELISA A4B1
T1 construct: purchased R&D Systems 5668-A4
T1 sequence (P13612 34-977 limits assumed): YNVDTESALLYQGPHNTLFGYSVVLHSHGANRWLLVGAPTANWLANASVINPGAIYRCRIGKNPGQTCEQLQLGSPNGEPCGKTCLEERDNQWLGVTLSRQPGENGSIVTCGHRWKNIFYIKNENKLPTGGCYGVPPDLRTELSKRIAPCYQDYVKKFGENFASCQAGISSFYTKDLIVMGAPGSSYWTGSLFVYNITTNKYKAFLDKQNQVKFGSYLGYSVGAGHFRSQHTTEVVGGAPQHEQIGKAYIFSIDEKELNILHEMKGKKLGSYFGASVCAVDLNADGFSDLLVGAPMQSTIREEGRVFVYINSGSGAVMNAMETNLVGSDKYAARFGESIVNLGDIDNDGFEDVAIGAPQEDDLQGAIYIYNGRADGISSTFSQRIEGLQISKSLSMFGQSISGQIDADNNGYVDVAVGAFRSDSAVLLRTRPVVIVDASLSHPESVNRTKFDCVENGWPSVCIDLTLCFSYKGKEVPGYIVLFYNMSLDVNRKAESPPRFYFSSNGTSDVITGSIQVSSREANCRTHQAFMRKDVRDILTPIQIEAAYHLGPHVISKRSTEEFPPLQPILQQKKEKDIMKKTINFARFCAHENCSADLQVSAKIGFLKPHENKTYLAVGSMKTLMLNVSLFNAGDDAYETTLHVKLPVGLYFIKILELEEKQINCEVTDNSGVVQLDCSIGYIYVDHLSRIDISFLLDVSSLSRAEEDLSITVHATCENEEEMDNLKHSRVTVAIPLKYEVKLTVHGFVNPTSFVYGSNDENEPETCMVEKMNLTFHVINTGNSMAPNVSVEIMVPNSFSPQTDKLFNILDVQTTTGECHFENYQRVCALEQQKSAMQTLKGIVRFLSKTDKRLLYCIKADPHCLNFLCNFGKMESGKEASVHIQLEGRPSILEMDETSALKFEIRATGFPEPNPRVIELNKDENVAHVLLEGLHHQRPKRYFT
T1 sequence (P05556 21-728 limits assumed): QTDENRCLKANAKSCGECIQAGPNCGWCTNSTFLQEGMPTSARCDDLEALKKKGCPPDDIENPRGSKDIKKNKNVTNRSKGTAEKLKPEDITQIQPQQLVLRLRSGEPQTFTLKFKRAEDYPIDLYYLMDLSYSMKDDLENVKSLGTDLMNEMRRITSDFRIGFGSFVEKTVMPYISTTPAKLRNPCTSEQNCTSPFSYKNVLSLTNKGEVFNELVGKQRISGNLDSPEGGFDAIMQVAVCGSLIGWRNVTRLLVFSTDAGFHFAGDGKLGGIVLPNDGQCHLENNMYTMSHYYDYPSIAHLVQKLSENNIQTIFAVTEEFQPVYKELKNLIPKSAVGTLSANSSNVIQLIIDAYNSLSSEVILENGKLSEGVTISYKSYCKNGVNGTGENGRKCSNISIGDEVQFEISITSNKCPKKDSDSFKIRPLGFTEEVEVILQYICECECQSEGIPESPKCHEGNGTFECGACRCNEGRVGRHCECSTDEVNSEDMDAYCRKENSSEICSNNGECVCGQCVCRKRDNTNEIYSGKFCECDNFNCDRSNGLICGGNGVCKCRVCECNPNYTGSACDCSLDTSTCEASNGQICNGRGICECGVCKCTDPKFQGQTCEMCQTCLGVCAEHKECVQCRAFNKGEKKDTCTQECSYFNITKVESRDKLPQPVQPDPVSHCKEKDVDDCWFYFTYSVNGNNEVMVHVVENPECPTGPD
Method: α4β1-VCAM Competition ELISA
A Nunc MaxiSorp plate was coated with rh VCAM-1/CD106 Fc chimera (R&D #862-VC) at 400 ng/well in 50 ul per well in 1×PBS and incubated overnight at 4° C. The solution was removed by shaking and then blocked with 250 ul of 1% BSA in 1×PBS per well. The wells were then incubated at room temperature for 1 hr with shaking. Each well was then washed once with wash buffer (50 mM Tris-HCl pH7.6, 100 mM NaCL, 1 mM MnCl2 or MgCl2, 0.05% Tween-20). 25 ul of serial dilutions of peptides starting at 200 μM in assay buffer (Assay buffer: 50 mM Tris-HCl pH7.6, 100 mM NaCl, 1 mM MnCl2 or MgCl2, 0.05% Tween-20) was added to each well. Additionally, 25 μl of α4β1 (R&D Systems #5668-A4) was added to each well at a fixed concentration of 120 nM. The final peptide and α4β1 concentrations were 100 μM and 60 nM, respectively. The plates were then incubated at 37° C. for 2 hr. The solution was then removed by shaking and each well was washed three times with wash buffer. 50 ul of 9F10 antibody at 4 ug/ml (purified mouse anti-human CD49d, BD Bioscience Cat #555502) was then added to each well, and the plate was incubated at room temperature for Ihr with shaking. The solution was again removed by shaking, and each well was washed three times with wash buffer. 50 μl of peroxidase-conjugated AffiniPure Goat anti-mouse IgG (Jackson immune research cat #115-035-003) diluted in 1:5000 in assay buffer was added to each well. The plate was incubated at room temperature for 30 min with shaking. Each well was then washed 3 times with wash buffer. 100 ul of TMB was then added to each well and closely observe during developing time. The reaction was stepped with 2N H2SO4 and absorbance was read at 450 nm.

Jurkat E6.1 cells = Jurkat E6.1 cells (Homo sapiens, UniProt P05556+P13612); assay: α4β1-VCAM Cell Adhesion Assay; type: cell-based; settings: thioether peptide dimers, Table 7; read-out: Cell Adhesion A4B1
Chain of Jurkat E6.1 cells (P13612 34-1032): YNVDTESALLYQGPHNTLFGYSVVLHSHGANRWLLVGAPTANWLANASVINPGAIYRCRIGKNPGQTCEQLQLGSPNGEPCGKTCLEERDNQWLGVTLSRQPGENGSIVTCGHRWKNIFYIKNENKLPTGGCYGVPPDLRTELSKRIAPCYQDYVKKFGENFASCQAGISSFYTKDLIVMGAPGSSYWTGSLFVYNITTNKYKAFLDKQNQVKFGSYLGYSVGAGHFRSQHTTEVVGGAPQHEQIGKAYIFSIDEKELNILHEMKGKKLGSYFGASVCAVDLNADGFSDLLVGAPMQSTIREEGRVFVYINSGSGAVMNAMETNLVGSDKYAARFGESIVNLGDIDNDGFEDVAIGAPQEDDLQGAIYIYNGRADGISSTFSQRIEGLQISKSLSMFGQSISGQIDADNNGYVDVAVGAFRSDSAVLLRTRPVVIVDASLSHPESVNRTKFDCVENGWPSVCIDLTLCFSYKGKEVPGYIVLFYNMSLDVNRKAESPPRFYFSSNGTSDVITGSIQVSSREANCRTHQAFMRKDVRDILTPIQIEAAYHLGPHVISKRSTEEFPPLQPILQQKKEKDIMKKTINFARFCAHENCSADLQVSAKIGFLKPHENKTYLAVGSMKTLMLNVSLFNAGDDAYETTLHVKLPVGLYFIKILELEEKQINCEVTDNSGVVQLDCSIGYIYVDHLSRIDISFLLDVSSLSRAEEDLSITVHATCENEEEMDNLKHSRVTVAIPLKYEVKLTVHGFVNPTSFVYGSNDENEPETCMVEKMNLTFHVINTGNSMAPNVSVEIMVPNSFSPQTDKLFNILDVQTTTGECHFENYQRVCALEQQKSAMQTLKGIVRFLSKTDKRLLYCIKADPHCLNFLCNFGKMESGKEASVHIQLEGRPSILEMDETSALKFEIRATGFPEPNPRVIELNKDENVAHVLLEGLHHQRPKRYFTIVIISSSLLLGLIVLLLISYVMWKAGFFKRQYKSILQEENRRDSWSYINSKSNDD
Chain of Jurkat E6.1 cells (P05556 21-798): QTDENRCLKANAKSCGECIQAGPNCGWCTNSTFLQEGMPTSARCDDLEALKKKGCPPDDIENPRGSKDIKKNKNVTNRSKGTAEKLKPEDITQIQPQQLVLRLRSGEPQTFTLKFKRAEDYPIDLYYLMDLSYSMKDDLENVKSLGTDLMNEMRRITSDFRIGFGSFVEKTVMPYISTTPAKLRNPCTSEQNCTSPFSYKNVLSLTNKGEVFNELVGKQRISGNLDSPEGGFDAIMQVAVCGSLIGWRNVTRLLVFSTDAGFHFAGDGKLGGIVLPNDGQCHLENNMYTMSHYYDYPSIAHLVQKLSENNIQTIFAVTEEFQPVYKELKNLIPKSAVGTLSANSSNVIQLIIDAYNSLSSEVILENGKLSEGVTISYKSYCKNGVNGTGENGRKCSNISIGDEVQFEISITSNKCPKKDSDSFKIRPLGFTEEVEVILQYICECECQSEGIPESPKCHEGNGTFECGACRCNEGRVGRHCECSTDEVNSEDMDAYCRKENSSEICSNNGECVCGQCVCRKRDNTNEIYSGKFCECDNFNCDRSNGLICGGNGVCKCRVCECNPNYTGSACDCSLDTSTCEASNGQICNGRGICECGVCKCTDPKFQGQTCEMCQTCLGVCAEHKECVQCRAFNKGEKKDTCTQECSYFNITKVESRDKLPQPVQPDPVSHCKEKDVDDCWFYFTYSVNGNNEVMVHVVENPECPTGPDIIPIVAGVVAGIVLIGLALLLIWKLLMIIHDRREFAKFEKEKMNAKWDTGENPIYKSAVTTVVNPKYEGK
Method: α4β1-VCAM Cell Adhesion Assay
Jurkat E6.1 cells (Sigma #88042803) were cultured in RPMI 1640 HEPES medium (Invitrogen #22400-089) supplemented with 10% serum (Fetal Bovine Serum, Invitrogen #16140-071), 1 mM sodium pyruvate (Invitrogen #11360-070), 2 mM L-glutamine (Invitrogen #25030-081) and Penicillin-Streptomycin (Invitrogen #15140-122) at 100 units of penicillin and 100 μg of streptomycin per ml. The cells were washed two times in DMEM medium (ATCC #30-2002) supplemented with 0.1% BSA, 10 mM HEPES pH 7 and 1 mM MnCl2. The cells were re-suspended in supplemented DMEM medium at a density of 4×10^6 cells/ml.
A Nunc MaxiSorp plate was coated with rh VCAM-1/CD106 Fc chimera (R&D #862-VC) at 400 ng per well in 50 μl per well in 1×PBS and incubated at 4° C. overnight. The solution was then removed by shaking, blocked with 250 μl per well PBS containing 1% BSA, and incubated at 37° C. for 1 hr. The solution was removed by shaking. Peptides were diluted by serial dilution in a final volume of 50 μl per well (2× concentration). To each well, 50 μl of cells (200,000 cells) were added and the plate was incubated at 37° C., 5% CO2 for 30-45 min to allow cell adhesion. The wells were washed manually three times (100 μl per wash) with supplemented DMEM. After the final wash, 100 μl/well of supplemented DMEM and 10 ul/well of MTT reagent (ATTC cat #30-1010K) were added. The plate was incubated at 37° C., 5% CO2 for 2-3 hrs until a purple precipitate is visible. 100 ul of Detergent Reagent (ATTC cat #30-1010K) is added to each well. The plate was covered from the light, wrapped in Parafilm to prevent evaporation, and left overnight at room temperature in the dark. The plate was shaken for 5 min and the absorbance at 570 nm is measured. To calculate the dose response, the absorbance value of control wells not containing cells was subtracted from each test well.

[3] = thioether monomer peptides, Table 6

Structure (SMILES)	SIF (Porcine) (half-life, min) [2]	IC50 (α4β1) [nM]	further results
Cc1cccc(C[C@H](NC(=O)[C@H]2NC(=O)[C@H](CC(C)C)NC(=O)[C@H]([C@@H](C)O)NC(=O)[C@H](CC(=O)O)NC(=O)[C@H](CO)NC(=O)[C@H](CCCNC(=N)N)N(C)C(=O)c3ccccc3CSC2(C)C)C(=O)N[C@@H](CCC(=O)O)CC(N)=O)c1 [compound 125] ([NMeR]SDTL[Pen][Phe(3-Me)][β3hE]-NH2; linker N-6 via X1)	–	–	IC50 [1, 3]: 100 to 1000 nM
Cc1ccc(C[C@H](NC(=O)[C@H]2NC(=O)[C@H](CC(C)C)NC(=O)[C@H]([C@@H](C)O)NC(=O)[C@H](CC(=O)O)NC(=O)[C@H](CO)NC(=O)[C@H](CCCNC(=N)N)N(C)C(=O)c3ccccc3CSC2(C)C)C(=O)N[C@@H](CCC(=O)O)CC(N)=O)cc1 [compound 132] ([NMeR]SDTL[Pen][Phe(4-Me)][β3hE]-NH2; linker N-6 via X1)	–	–	IC50 [1, 3]: 100 to 1000 nM
CC(C)C[C@@H]1NC(=O)[C@H]([C@@H](C)O)NC(=O)[C@H](CC(=O)O)NC(=O)[C@H](CO)NC(=O)[C@H](CCCNC(=N)N)N(C)C(=O)c2ccccc2CSC(C)(C)[C@@H](C(=O)N[C@@H](Cc2c[nH]c3ccccc23)C(=O)N[C@H](CCC(=O)O)C(=O)N[C@H](CCCCN)C(N)=O)NC1=O [compound 150] (HELM PEPTIDE1{[meR].S.D.T.L.[Pen].W.[dE].[dK].[am]}|CHEM1{[O=C(c1ccccc1C[*:2])[*:1]]}$PEPTIDE1,CHEM1,1:R1-1:R1|PEPTIDE1,CHEM1,6:R3-1:R2$$$V2.0)	>300 min	25 to 100	IC50 (Jurkat E6.1 cells): > 100000 nM
CCCC[C@@H]1NC(=O)[C@H]([C@@H](C)O)NC(=O)[C@H](CC(=O)O)NC(=O)[C@H](CO)NC(=O)[C@H](CCCNC(=N)N)N(C)C(=O)c2ccccc2CSC(C)(C)[C@@H](C(=O)N[C@@H](Cc2c[nH]c3ccccc23)C(=O)N[C@@H](CCC(=O)O)C(=O)N[C@H](CCCCN)C(N)=O)NC1=O [compound 154] (HELM PEPTIDE1{[meR].S.D.T.[Nle].[Pen].W.E.[dK].[am]}|CHEM1{[O=C(c1ccccc1C[*:2])[*:1]]}$PEPTIDE1,CHEM1,1:R1-1:R1|PEPTIDE1,CHEM1,6:R3-1:R2$$$V2.0)	–	25 to 100	IC50 (Jurkat E6.1 cells): > 100000 nM
CC(C)C[C@@H]1NC(=O)[C@H]([C@@H](C)O)NC(=O)[C@H](CC(=O)O)NC(=O)[C@H](CO)NC(=O)[C@H](CCCNC(=N)N)N(C)C(=O)c2ccccc2CSC(C)(C)[C@@H](C(=O)N[C@@H](Cc2ccccc2)C(=O)N[C@H](CCC(=O)O)C(=O)N[C@H](CCCCN)C(N)=O)NC1=O [compound 155] (HELM PEPTIDE1{[meR].S.D.T.L.[Pen].F.[dE].[dK].[am]}|CHEM1{[O=C(c1ccccc1C[*:2])[*:1]]}$PEPTIDE1,CHEM1,1:R1-1:R1|PEPTIDE1,CHEM1,6:R3-1:R2$$$V2.0)	> 300 min	100 to 1000	–
CC(C)C[C@@H]1NC(=O)[C@H]([C@@H](C)O)NC(=O)[C@H](CC(=O)O)NC(=O)[C@H](CO)NC(=O)[C@H](CCCNC(=N)N)N(C)C(=O)c2ccccc2CSC[C@@H](C(=O)N2Cc3ccccc3C[C@H]2C(=O)N[C@H](CCC(=O)O)C(=O)N[C@H](CCCCNC(=O)COCC(=O)NCCCC[C@@H](NC(=O)[C@@H](CCC(=O)O)NC(=O)[C@@H]2Cc3ccccc3CN2C(=O)[C@@H]2CSCc3ccccc3C(=O)N(C)[C@@H](CCCNC(=N)N)C(=O)N[C@@H](CO)C(=O)N[C@@H](CC(=O)O)C(=O)N[C@@H]([C@@H](C)O)C(=O)N[C@@H](CC(C)C)C(=O)N2)C(N)=O)C(N)=O)NC1=O [compound 184] (I: [NMeR]SDTLC[Tic][dE][dK]-NH2 / II: [NMeR]SDTLC[Tic][dE][dK]-NH2; linker I:9-II:9 via Diglycolyl; linker I:N-I:6, II:N-II:6 via X1)	–	–	IC50 ([1]; thioether peptide dimers, Table 7): 25 to 100 nM
CC(C)C[C@@H]1NC(=O)[C@H]([C@@H](C)O)NC(=O)[C@H](CC(=O)O)NC(=O)[C@H](CO)NC(=O)[C@H](CCCNC(=N)N)N(C)C(=O)c2ccccc2CSC(C)(C)[C@@H](C(=O)N[C@@H](Cc2c[nH]c3ccccc23)C(=O)N[C@H](CCC(=O)O)C(=O)N[C@H](CCCCN)C(N)=O)NC1=O [compound 213] (HELM PEPTIDE1{[meR].S.D.T.L.[Pen].W.[dE].[dK].[am]}|CHEM1{[O=C(c1ccccc1C[*:2])[*:1]]}$PEPTIDE1,CHEM1,1:R1-1:R1|PEPTIDE1,CHEM1,6:R3-1:R2$$$V2.0)	>180 (419) min	–	–
